# PubChem BioAssay AID1963967 (Molecular Pharmacology Branch, DTP, NCI, 2024)
# Not every entry of the source has a single result; some have several. The list is limited to them. An entry can have further records. Results that share an entry are repeated measurements across runs, samples, wells, individuals or studies. Counts like (3×) count equal records among those shown.
# Test system: 855422-203-R-J1-PDC spheroids with HUVEC/MSC, viability
# Assay: Anticancer human tumor 855422-203-R-J1-PDC patient-derived bladder carcinoma cell line growth inhibition [PI3K]
# Conditions: stronger effect = lower value
# Text: Combinatorial screen of targeted agents with the PI3K inhibitors inavolisib, alpelisib, duvelisib, and copanlisib in multi-cell type tumor spheroids
# A high-throughput screen of multi-cell type tumor spheroids was designed to identify active combinations of targeted small molecules and PI3K pathway inhibitors. Complex spheroids include a stromal component modeled by human endothelial cells (HUVEC) and fibroblasts modeled by human mesenchymal stem cells (MSCs). The concentration ranges selected for each drug and investigational agent were based upon clinically achievable concentrations if the clinical Cmax of the agent was known.
# Compounds. The drugs and investigational agents: inavolisib (NSC800729), alpelisib (NSC765974), duvelisib (NSC772469), copanlisib (NSC816437), ipatasertib (NSC767898), afuresertib (NSC778305), talazoparib (NSC767125), sapanisertib (NSC764658), selumetinib (NSC741078), tovorafenib (DAY101, NSC766906), vemurafenib (NSC761431), ravoxertinib (NSC781343), sotorasib (NSC818433), MRTX1133 (NSC 836407), abemaciclib (NSC 768073), palbociclib (NSC758247), venetoclax (NSC 766270), SY5609 (NSC837396), enzalutamide (NSC755605), and darolutamide (NSC825331), were obtained from the National Cancer Institute (NCI) Developmental Therapeutics Program Chemical Repository. The FDA-approved anticancer drug set is available from the NCI Developmental Therapeutics Program. […] The stock solutions were prepared in dimethyl sulfoxide (DMSO, Sigma-Aldrich, St. Louis, MO, cat. D2650) at 800-fold the tested concentration and stored at -70 degrees C prior to their use. All drugs and investigational agents were tested over a range starting from a high concentration at or near the clinical Cmax and decreasing in half-log increments. If the clinical Cmax for an agent had not been determined, the highest concentration tested was 10 microM.
# Cell Culture. All cells were maintained in an incubator at 37 degrees C and 5% CO2 with 95% humidity. The PDC lines were cultured according to standard operating procedures established by the NCI PDMR (https://pdmr.cancer.gov/sops/default.htm). All PDCs were thawed and cultured in Matrigel-coated flasks prepared with a working solution of 1X Ham's F-12 nutrient mix, without supplementation (Invitrogen, Waltham, MA, cat. 11765054), 100 U/mL penicillin-streptomycin (Invitrogen, cat. 15140122), and 2.5% Matrigel (Corning Inc., Corning, NY, cat. 354248) for the first three passages. The 354836-022-R-J1-PDC, 475296-252-R-J1-PDC, and 997726-040-R-J2-PDC lines were cultured in 6A media, which includes advanced DMEM/F-12 (Thermo Fisher Scientific, cat. 12634028), 10 mM HEPES (Thermo Fisher Scientific, cat. 15630080), 1X GlutaMAX supplement (Thermo Fisher Scientific, cat. 35050061), 0.1 mg/mL primocin (InvivoGen, San Diego, CA, cat. ant-pm-2), 10% defined fetal bovine serum, heat inactivated (HyClone Laboratories Inc., Logan, UT, cat. SH30070.03HI), 50% L-WRN conditioned media (ATCC, cat. CRL-3276), 1.25 mM N-Acetyl-L-cysteine (Sigma-Aldrich, cat. A9165), 10 mM nicotinamide (Sigma-Aldrich, cat. N0636), 1X B-27 supplement (Thermo Fisher Scientific, cat. 17504044), 1X N-2 supplement (Thermo Fisher Scientific, cat. 17502048), and 10 microM Y-27632 dihydrochloride (Tocris Bioscience, Bristol, United Kingdom, cat. 1254). The 624824-186-R-J2-PDC line was cultured in 6C/Colon 1B media, which includes all 6A media components plus 50 ng/mL human EGF recombinant protein (Thermo Fisher Scientific, cat. PHG0311). […]
# 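Note: agents incubated with spheroids for one week before read-out; 100% = DMSO vehicle-treated control wells.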
structure (smiles),measurement,setting,value
Cc1nc(NC(=O)N2CCCC2C(N)=O)sc1-c1ccnc(C(C)(C)C(F)(F)F)c1 (stereo unspecified),"viability, T/C",compound alone 0.1 µM,"90.5, 97.9, 101, 88.5, 111, 68.2, 107, 106%"
same,"viability, T/C",compound alone 0.316 µM,"100 (2×), 87.3, 97.9, 76.2, 104, 74.2, 98.3%"
CC1(C)CCC(CN2CCN(c3ccc(C(=O)NS(=O)(=O)c4ccc(NCC5CCOCC5)c([N+](=O)[O-])c4)c(Oc4cnc5[nH]ccc5c4)c3)CC2)=C(c2ccc(Cl)cc2)C1,"viability, T/C",compound alone 3.16 µM,"72, 61.5, 78, 96.6%"
CCCS(=O)(=O)Nc1ccc(F)c(C(=O)c2c[nH]c3ncc(-c4ccc(Cl)cc4)cc23)c1F,"viability, T/C",compound alone 0.0316 µM,"84.8, 111, 116, 110%"
C[C@@H](NC(=O)c1ncnc(N)c1Cl)c1ncc(C(=O)Nc2cc(C(F)(F)F)c(Cl)cn2)s1,"viability, T/C",compound alone 1 µM,"96.3, 82.7, 110, 97.2%"
CCN1CCN(Cc2ccc(Nc3ncc(F)c(-c4cc(F)c5nc(C)n(C(C)C)c5c4)n3)nc2)CC1,"viability, T/C",compound alone 0.01 µM,"98.3, 78.5, 105, 82.9%"
